In all, about 390,000 compounds went through this assay and about 17,000 (4.4%) were called active. Inconclusive results, whose numbers are uncertain, are shown with a selection of clear calls. Calls come from the whole dose curve; as a rule, active = well fitted inhibition curve with a large enough effect; inconclusive = small, poorly fitted or top-dose-only effect; inactive = no such curve, though single readings can be large or run the other way. Potencies beside an inconclusive call are fits to weak or partial responses and may not hold up.
What follows are compounds tested against Lysine-specific demethylase 4A (Homo sapiens) (UniProt O75164) (assay: qHTS Assay for Inhibitors of JMJD2A-Tudor Domain). Conditions: AlphaScreen JMJD2A-Tudor / H3K4me3 peptide binding; activity change, negative = inhibition: at 114 µM (top of the series).
Chain of UniProt O75164 (O75164 whole entry, looked up, the tested form may be a part): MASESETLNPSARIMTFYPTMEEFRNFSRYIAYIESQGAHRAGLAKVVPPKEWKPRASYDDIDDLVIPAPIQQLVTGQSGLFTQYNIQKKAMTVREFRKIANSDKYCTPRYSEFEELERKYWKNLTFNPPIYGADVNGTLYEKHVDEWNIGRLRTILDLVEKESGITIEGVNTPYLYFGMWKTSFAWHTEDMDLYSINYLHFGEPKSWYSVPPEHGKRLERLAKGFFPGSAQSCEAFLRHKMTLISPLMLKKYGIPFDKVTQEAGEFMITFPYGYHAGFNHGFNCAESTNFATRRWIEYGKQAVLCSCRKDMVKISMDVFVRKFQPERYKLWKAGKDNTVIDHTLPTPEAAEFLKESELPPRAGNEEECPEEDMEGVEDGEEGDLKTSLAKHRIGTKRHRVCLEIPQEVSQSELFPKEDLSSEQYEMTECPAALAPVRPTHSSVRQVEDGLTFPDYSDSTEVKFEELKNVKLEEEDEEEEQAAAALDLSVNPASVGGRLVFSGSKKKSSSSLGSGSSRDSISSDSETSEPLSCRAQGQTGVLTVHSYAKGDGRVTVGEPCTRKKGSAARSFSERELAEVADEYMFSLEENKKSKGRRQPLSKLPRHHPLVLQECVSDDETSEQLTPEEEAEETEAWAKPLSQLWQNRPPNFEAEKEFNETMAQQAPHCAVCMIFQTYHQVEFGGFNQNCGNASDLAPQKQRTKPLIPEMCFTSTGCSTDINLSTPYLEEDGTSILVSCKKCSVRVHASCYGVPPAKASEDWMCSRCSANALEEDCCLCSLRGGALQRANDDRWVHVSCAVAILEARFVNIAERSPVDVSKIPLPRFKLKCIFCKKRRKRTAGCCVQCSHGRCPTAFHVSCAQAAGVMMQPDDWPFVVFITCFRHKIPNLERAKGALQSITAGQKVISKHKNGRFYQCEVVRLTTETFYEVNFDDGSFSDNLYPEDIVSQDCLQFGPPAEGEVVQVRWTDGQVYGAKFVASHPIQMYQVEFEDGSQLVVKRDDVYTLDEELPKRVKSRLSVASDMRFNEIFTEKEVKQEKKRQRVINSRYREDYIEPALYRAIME
% is set by controls: 0 for no effect and ±100 for the full control effect; potency is the fitted concentration of half-maximal effect; tags give direction and shape of the fitted curve.
Note: nearly all actives have a fitted effect of over 50% in size.

Potency, inactive:
O=C(CCc1nc2ccccc2c(=O)[nH]1)Nc1ccc(F)c([N+](=O)[O-])c1
CCOC(=O)c1cc(-c2ccccc2)n(-c2cccc(C(=O)NC(C)CC)c2)c1C (centres undefined)
CCc1ccccc1NC(=O)Cn1c(C(=O)OC)cc2oc(C)cc21
CSCCC(NC(=O)c1ccco1)C(=O)N1CC=C(c2ccccc2)CC1 (centres undefined)
Cc1c(C(=O)N(C)c2ccccc2)sc2nc(-c3ccc(F)cc3)cn12
CCS(=O)(=O)N1CC(=O)N(c2cccc(C)c2C)C(C)(C(=O)NC2CCCCCC2)C1 (centres undefined)
CN(C)c1ccc(C(=O)NNC(=O)c2ccc(Cl)cc2)cc1
O=C(COC(=O)C1CCN(c2ccc(C(F)(F)F)cn2)CC1)NCc1cccc(Cl)c1
COc1ccc(/C=N/Nc2nccnc2Cl)cc1
Cc1[nH]n(-c2ccccc2)c(=O)c1C=NC1CCCCCC1
CN(C)C(=O)c1sccc1Oc1ccc(F)cc1[N+](=O)[O-]
CCc1ccc(CNC(=O)Cn2nc(C)c3c(C)n(-c4ccc(C)cc4)nc3c2=O)cc1
NNC(=O)C1C(O)CCC2CN3CCc4c([nH]c5ccccc45)C3CC21 (centres undefined)
COc1cccc(-c2nnc(NC(=O)c3ccc(S(=O)(=O)N4CC(C)OC(C)C4)cc3)o2)c1 (centres undefined)

Potency, active:
Nc1ccc(N(CCO)CCO)cc1 8.91 µM
Cc1scc(-c2n[nH]c(=S)n2C(C)c2ccccc2)c1C (centres undefined) 79.4 µM
C=C(C)C(=O)Nc1ccc(OC(F)(F)C(F)F)c(NC(=O)C(=C)C)c1 79.4 µM
CCc1ccc(S(=O)(=O)ON2C(=O)c3ccccc3C2=O)cc1 50.1 µM
CC(C)NC(=O)C(=O)NNC(=O)CCc1ccccc1 14.1 µM
CCN(CC)c1ccc(N=C2C=CC(=O)C=C2NC(C)=O)cc1 10 µM
CCn1c(CSCc2ccccc2)n[nH]c1=S 17.8 µM
CC1CN(Cc2ccccc2Cl)CC(C)O1 (centres undefined) 4.47 µM
Cc1c(C)c2cccnc2c2ncccc12 10 µM
CN1CCN(c2ccccc2NC(=O)c2ccc(N3CCCCC3)c([N+](=O)[O-])c2)CC1 50.1 µM
CCc1ccc(OCc2nnc(SCCN3CCOCC3)n2CC)cc1 3.16 µM

Potency, inconclusive:
O=C(Nc1nnc(-c2ccccn2)o1)c1cccc(Br)c1 70.8 µM [inhibitor, single point]
COc1cc(/C=N/Nc2ccc(Cl)c(C(=O)O)c2)ccc1OC(=O)c1cccs1 50.1 µM [inhibitor, partial curve]
COc1ccc(Nc2nc(-c3ccccc3)c3cc(Br)ccc3n2)cc1 35.5 µM [inhibitor, partial curve]
CCn1c(CN2CCCCC2)nc2cc(NC(=O)COc3cc(C)ccc3C(C)C)ccc21 11.2 µM [inhibitor, full curve]
Cc1ccc(-c2n[nH]c(=S)n2/N=C/c2ccncc2)cc1 5.62 µM [inhibitor, single point]
Cc1cc(C)c(O)c(CN(C)Cc2cc(Cl)cc(Cl)c2O)c1 56.2 µM [inhibitor, partial curve]
C/C(N)=C(/C#N)C(=O)COC(=O)CC12CC3CC(CC(C3)C1)C2 89.1 µM [inhibitor, partial curve, poor fit]
Cc1ccc(C)c(N2CCN(C(=O)Cc3cn(C)c4ccccc34)CC2)c1 89.1 µM [inhibitor, partial curve]
CCc1cccc(N=c2c([N+](=O)[O-])nn(-c3ccc4c(c3)OCCO4)n2O)c1 39.8 µM [inhibitor, partial curve]
Cc1onc(-c2ccccc2)c1C(=O)NNC(=S)NC(=O)c1ccc(Br)cc1 56.2 µM [inhibitor, partial curve]
O=C(Nc1ccccc1N1CCOCC1)c1ccc([N+](=O)[O-])s1 20 µM [inhibitor, full curve]
CCN(CCCNC(=O)CSc1cc(=O)n(C)c2cc(Cl)ccc12)c1ccccc1 8.91 µM [inhibitor, full curve]
COc1ccc(C(=O)N/N=C/c2ccc(OC)c(CN3CCCc4ccccc43)c2)cc1 7.94 µM [inhibitor, full curve, poor fit]
O=S(=O)(NCc1cccnc1)c1ccc(Cl)s1 3.55 µM [inhibitor, full curve]
CCN(CC)C(=O)c1sc2c(c1C)c(=O)n(-c1ccc(OC)cc1OC)c(=O)n2Cc1cc(C)ccc1C 79.4 µM [inhibitor, partial curve]
CCc1ccc(OCC(=O)Nc2ccc(-c3nc4ccccc4o3)c(O)c2)cc1 79.4 µM [inhibitor, single point]
CCC(=O)N1c2ccccc2CC1C(=O)NCCN1CCN(c2cccc(Cl)c2)CC1 (centres undefined) 89.1 µM [inhibitor, partial curve]
O=C(NCCCNC(=O)c1cccs1)c1cccs1 4.47 µM [inhibitor, single point]
O=C(CN1CCN(Cc2ccccc2)CC1)Nc1ccccc1-c1ccccc1 100 µM [inhibitor, partial curve]
Cc1ccc(C2=NN=C(NC(=O)CSc3nnc4c5ccccc5n(C)c4n3)SC2)cc1 44.7 µM [inhibitor, single point]
CN(C)c1ccc(CNC(=O)Cn2c(=O)oc3cc(S(=O)(=O)NCc4ccccc4)ccc32)cc1 56.2 µM [inhibitor, partial curve]
CCC1CN(C(=O)N2CCC(C(=O)NCCCc3ccccc3)CC2)c2ccccc2O1 (centres undefined) 22.4 µM [inhibitor, full curve]

Activity change, negative = inhibition, inactive:
N#CCC(=O)N/N=C/c1cc([N+](=O)[O-])ccc1N1CCOCC1 -12% [at 11.4 µM]
CCCC(=O)Nc1ccc(C(=O)NNC(=S)NC(=O)c2ccc(Br)o2)cc1 -3.76% [at 11.4 µM]

Source: PubChem BioAssay AID504339 (National Center for Advancing Translational Sciences (NCATS), 2011)
